Reference: the supplement of paper PMC11181314
This is one part of the list. Single values of this set are uncertain.

Test system: U2OS
Experiment: Cell Painting induction (percent of morphological features significantly changed vs DMSO); higher = stronger morphological change
Conditions: 10 µM, 20 h
Procedure: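 Cell Painting assay in U2OS cells: compounds at 10 µM for 20 h, six dyes, 579 robust CellProfiler features as Z-scores vs DMSO median (MAD). Induction is the % of significantly changed features (active if ≥5%); relative cell count is in % of DMSO. The primary run holds DCM compounds preselected for induction ≥10%; the confirmation repeat defines active compounds (370 of 549). Replicate agreement is low, attributed to precipitation.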

[1] = run: primary screen (compounds selected for induction >=10%)
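Note: stains mark DNA, RNA and nucleoli, ER, actin, Golgi, plasma membrane and mitochondria, read by high-content imaging, with DMSO controls at matching solvent concentration.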

| Compound | Cell Painting induction (run: confirmation repeat) | Cell Painting induction [1] [%] |
| --- | --- | --- |
| CC(C)C(=O)NC(c1ccc(N(C)C)cc1)c1c(O)ccc2ccccc12 (centres undefined) | active: 5.2% | 20.2 |
| CCN1CCN(C2CCCCC2NS(=O)(=O)c2ccc(Cl)cc2)CC1 (centres undefined) | inactive: 1.6% | 22.1 |
| CCCOc1ccc(/C=C/C(=O)Nc2ccc(C(C)=O)cc2)cc1OC | active: 10.4% | 14.2 |
| COc1ccc(N(CC(=O)N2CCN(c3cc(C)ccc3C)CC2)S(=O)(=O)c2c(C)noc2C)cc1 | inactive: 2.4% | 53 |
| CCn1cc(C(=O)N2CCc3ccccc32)c(=O)c2cc(S(=O)(=O)N3CC(C)CC(C)C3)ccc21 (centres undefined) | active: 19% | 19.3 |
| CCOC(=O)c1c(-c2ccccc2)csc1NC(=O)c1cc2ccccc2oc1=O | inactive: 0% | 48.4 |
| COc1ccc(C2/C(=C(\O)OC(C)C)C(C)=Nc3nc4ccccc4n32)cc1 (centres undefined) | inactive: 3.5% | 23.8 |
| COc1ccc(-c2noc(N3CCC(C(=O)NCCCN4CCC(C)CC4)CC3)n2)cc1 | inactive: 2.2% | 25.9 |
| Cc1c2cnn(-c3ccccc3)c(=O)c2c(C)n1CCCC(=O)N1CCN(C2CCCCC2)CC1 | active: 24.5% | 32.3 |
| CC(C)(C)c1ccc(C(=O)Nc2ccccc2C(=O)NCCN2CCOCC2)cc1 | active: 10% | 26.3 |
| CO/C(O)=C1\C(C)=Nc2nc3ccccc3n2C1c1ccccc1F (centres undefined) | active: 44% | 43 |
| COc1ccc(OC)c(-c2oc3ccccc3c(=O)c2O)c1 | active: 11.6% | 13 |
| COc1ccc(NC2=CC(c3ccc(OC)c(OC)c3)N(c3ccc(OC)cc3)C2=O)cc1 (centres undefined) | inactive: 1.6% | 12.1 |
| CCCn1c2ccccc2c2nnc(SCC(=O)Nc3cc(C)on3)nc21 | inactive: 0.7% | 17.8 |
| CCN(CC)S(=O)(=O)c1cccc(-c2nnc(-c3ccc(C)cc3)o2)c1 | inactive: 0.2% | 22.1 |
| COc1ccccc1NC(=O)CCc1c(C)nc2c(-c3ccc(F)cc3)c(C)nn2c1C | active: 21.1% | 15.4 |
| COc1ccccc1CNC(=O)c1ccc2c(=O)n3c(nc2c1)CCCCC3 | inactive: 2.4% | 11.1 |
| Cc1ccc(C)c(Cn2nc3c4ccccc4n(Cc4ccccc4)cc-3c2=O)c1 | inactive: 0.9% | 21.4 |
| COC(=O)c1cc(S(=O)(=O)NCC2CCN(Cc3cc(C)ccc3C)CC2)cn1C | active: 11.6% | 12.4 |
| CCOC(=O)c1ccc(NC(=O)c2cnn(-c3ccccc3)c2C2CCNCC2)cc1 | active: 16.8% | 18.7 |
| Brc1ccc(-c2nnc3sc(CN4CCc5ccccc5C4)cn23)cc1 | inactive: 0.3% | 36.1 |
| CCOc1ccc(S(=O)(=O)NCC2CCCO2)cc1NC(=O)c1ccccc1F (centres undefined) | inactive: 2.8% | 22.1 |
| Cc1noc(C)c1S(=O)(=O)N(CC(=O)NCc1ccccc1)c1ccc(C(C)C)cc1 | active: 17.1% | 20 |
| COc1ccc(NC(=S)N(CCCN2CCOCC2)Cc2cn(C)c3ccccc23)cc1OC | active: 6.4% | 16.1 |
| CCN(CC)CCOc1nnc(-c2ccc(OC)cc2)c2ccccc12 | inactive: 2.1% | 17.4 |
| O=C(Nc1ccc2c(c1)CCCN2C(=O)c1cccs1)c1c(F)cccc1F | active: 30.4% | 22.1 |

| Compound | Cell Painting induction (run: confirmation repeat) | Cell Painting induction [1] [%] |
| --- | --- | --- |
| Cc1ccc2nc(-c3cccnc3)cc(C(=O)Nc3ccc(F)cc3C)c2c1 | active: 12.3% | 13.1 |
| CC(=O)Nc1ccc(NS(=O)(=O)c2cc(-c3cnc(C4CC4)o3)ccc2C)cc1 | active: 51.3% | 51.8 |
| O=C(NCCN1CCN(C(=O)c2cccc(Br)c2)CC1)C(=O)Nc1ccc(Br)cc1 | active: 24.5% | 33.3 |
| CC1=C(C(=O)Nc2ccc(Cl)cc2)C(c2cccc(Br)c2)n2nc(C(F)(F)F)nc2N1 (centres undefined) | active: 11.6% | 26.8 |
| CCOc1ccc(S(=O)(=O)N2CCN(CC)CC2)cc1NC(=O)c1ccccc1F | active: 19.9% | 14.7 |
| COCCn1c(CN2CCN(C(c3ccccc3)c3ccccc3)CC2)nc2c1c(=O)n(C)c(=O)n2C | inactive: 0.7% | 13 |
| CC1CCN(c2ccc3nnc(CCC(=O)N4CCN(c5ccccc5F)CC4)n3n2)CC1 | active: 6.6% | 13.6 |
| CCC1CCCCN1CCCNC(=O)c1ccc(CS(=O)(=O)Cc2ccc(Cl)cc2)o1 (centres undefined) | active: 8.1% | 13.8 |
| N#CCCN(C(=O)c1ccc2c(=O)n3c(nc2c1)CCCCC3)c1ccccc1 | active: 15.2% | 15.2 |
| O=C(C1CCCN(S(=O)(=O)c2ccc(Br)s2)C1)N1CCN(c2ccccc2)CC1 (centres undefined) | inactive: 4.5% | 11.2 |
| Cc1ccc(-c2nc(CS(=O)(=O)CC(=O)NCCCN(Cc3ccccc3)C(C)C)c(C)o2)cc1 | active: 37.5% | 43.9 |
| Cc1ccc(-c2nc(S(=O)(=O)c3ccccc3)c(SCC(=O)NCC3CCCO3)o2)cc1 (centres undefined) | active: 12.6% | 29.9 |
| CCOc1cc2c(cc1OCC)C(c1ccc(C(F)(F)F)cc1)CC(=O)N2 (centres undefined) | active: 11.2% | 13.5 |
| O=c1c2ccccc2nc(CSc2nnnn2-c2ccccc2)n1-c1cccc(C(F)(F)F)c1 | inactive: 0.7% | 13.8 |
| COC(=O)c1ccc(N2CCN(C)CC2)c(NC(=O)COc2cccc(C)c2)c1 | inactive: 0.3% | 20 |
| CCCCSCCCNC(=O)c1cn(C)c2ccc(S(=O)(=O)N3CCCC3)cc2c1=O | inactive: 0% | 15.7 |
| Cc1cc(C)cc(NC(=S)N(CCCN2CCN(C)CC2)Cc2cccs2)c1 | active: 14.7% | 21.4 |
| COC(=O)c1ccccc1NC(=O)Cn1c(=O)n(CCC(=O)NC2CCN(Cc3ccccc3)CC2)c(=O)c2ccccc21 | inactive: 1.4% | 41.3 |
| Cc1ccc2c(c1)ncc1c(-c3ccccc3)nn(-c3cccc(F)c3)c12 | inactive: 0.2% | 49.6 |
| COCCOC(=O)C1=C(C)Nc2nc3ccccc3n2C1c1cc(F)cc(F)c1 (centres undefined) | active: 7.8% | 41.8 |
| COc1ccc(CNC(=O)c2cc3c(O)nc4ccccc4c3n2C)cc1 | active: 21.6% | 26.8 |
| CCOc1cc2[nH]c(=O)n(CCCN3CCN(c4ccc(OC)cc4)CC3)c(=O)c2cc1OCC | active: 17.4% | 33.3 |
| Cc1cccc(CN2CCC(CNC(=O)Cn3ncc4c5ccccc5nc-4c3O)CC2)c1 | inactive: 0.5% | 49.9 |
| O=C(NCC1CCN(Cc2ccc(F)cc2)CC1)Nc1cc(F)ccc1F | active: 31.4% | 33.9 |
| CCCCN(C)CCN1C(=O)[C@@H]2C(C(=O)Nc3ccc(OC)cc3)[C@@H]3C=C[C@]2(O3)C1C(=O)NC1CCCCC1 (some centres undefined) | active: 46.3% | 28.3 |
| CCN(CCCNC(=O)Cn1ncc2c3ccccc3nc-2c1O)Cc1ccccc1 | inactive: 1.4% | 11.1 |

| Compound | Cell Painting induction (run: confirmation repeat) | Cell Painting induction [1] [%] |
| --- | --- | --- |
| COc1cc(OC)c(NC(=O)c2nnn(-c3ccccc3)c2C)cc1Cl | inactive: 0% | 22.1 |
| CCOc1ccccc1C(=O)NCCCN1CCN(CCCNC(=O)c2ccccc2OCC)CC1 | active: 31.8% | 38.5 |
| COc1ccc(C(=O)Nc2ccc(S(=O)(=O)NC(C)(C)C)cc2)c(OC)c1 | active: 15.9% | 15.4 |
| COC(=O)CSC1=C(C#N)C(c2cccc(F)c2)CC(=O)N1 (centres undefined) | active: 22.3% | 12.4 |
| COc1ccc(Cc2nc(-c3cc(Cl)ccc3OC)no2)cc1OC | inactive: 4.8% | 13.8 |
| COC(=O)C1=C(CSCc2ccccc2)NC(=O)NC1c1cc(C)ccc1C (centres undefined) | active: 6.9% | 11.6 |
| COc1ccc(C(=O)NCC2(c3ccc(OC)c(OC)c3)CCCC2)c(OC)c1 | inactive: 2.2% | 13.8 |
| Cc1ccccc1CS(=O)(=O)CCC(=O)NCCCN1CCN(c2ccccc2F)CC1 | active: 7.3% | 27.3 |
| COc1cccc(/C=C2\N=C(c3c(-c4ccccc4)noc3C)OC2=O)c1 | inactive: 3.5% | 12.1 |
| CCCCCCOc1ccccc1/C=N/NC(=O)COc1ccc(C)c(C)c1 | inactive: 2.6% | 12.8 |
| Cc1cccc(/C=C2\Sc3ccc(C(=O)N4CCOCC4)cc3N(C)C2=O)c1 | active: 31.3% | 17.6 |
| CCOc1ccc(NC(=O)NCC2CCN(Cc3ccc(F)cc3)CC2)cc1 | active: 24.5% | 26.8 |
| O=C(NC1CCCCCC1)c1cc(-c2ccccn2)nc2ccccc12 | inactive: 0% | 16.9 |
| COc1ccc(NC(=O)c2nnn(-c3ccc(OC)c(Cl)c3)c2C)c(OC)c1 | inactive: 0.5% | 40.9 |
| CCc1ccc(NC(=O)c2cc(S(=O)(=O)N3CCCC3)ccc2F)cc1 | inactive: 4.5% | 11.2 |
| CCn1cc(C(=O)NCCCN2CC(C)CC(C)C2)c(=O)c2cc(S(=O)(=O)N(C)C)ccc21 (centres undefined) | inactive: 0.9% | 18.1 |
| COc1ccccc1NC(=O)c1cnn(-c2cccc(C)c2)c1C1CCNCC1 | active: 22.6% | 17.4 |
| Cc1cccc(N2CCN(C(=O)CCCn3c(=O)c4cccn4c4cccnc43)CC2)c1C | active: 26.3% | 25.9 |
| Cc1ccc(NC(=O)c2cnn(-c3ccccc3)c2C2CCNCC2)c(Cl)c1 | active: 30.6% | 30.1 |
| CC1(C)CC(NC(=O)C(=O)NCCc2ccc(Cl)cc2)CC(C)(C)N1 | active: 6.4% | 24 |
| COc1ccc(-c2cc(O)nc(N3CCN(Cc4ccccc4)CC3)n2)cc1 | inactive: 0% | 16.6 |
| Cc1ccc(C)c(CSc2nc3ccncc3n2CC(=O)Nc2ccc(C)c(C)c2)c1 | active: 12.6% | 29.7 |
| COc1ccc(S(=O)(=O)N(CC(=O)NC(C(C)C)C(C)C)c2ccc(C)cc2)cc1OC | active: 5.2% | 11.6 |
| CCOc1cc(CNCCCN2CCOCC2)cc(Cl)c1OCC(=O)NC(C)(C)C | active: 33.7% | 37.7 |
| COc1ccccc1N1CCN(S(=O)(=O)CCNC(=O)c2cc(OC)c(OC)c(OC)c2)CC1 | active: 32.5% | 41.5 |
